The other results are listed elsewhere or left out. At the low end of the ranking the order means little. Measured with an extract: partners may take part in the binding.

In the assay the target is T1, HNF4alpha8 (COS-7 nuclear extract) (UniProt P41235-5).
T1 sequence: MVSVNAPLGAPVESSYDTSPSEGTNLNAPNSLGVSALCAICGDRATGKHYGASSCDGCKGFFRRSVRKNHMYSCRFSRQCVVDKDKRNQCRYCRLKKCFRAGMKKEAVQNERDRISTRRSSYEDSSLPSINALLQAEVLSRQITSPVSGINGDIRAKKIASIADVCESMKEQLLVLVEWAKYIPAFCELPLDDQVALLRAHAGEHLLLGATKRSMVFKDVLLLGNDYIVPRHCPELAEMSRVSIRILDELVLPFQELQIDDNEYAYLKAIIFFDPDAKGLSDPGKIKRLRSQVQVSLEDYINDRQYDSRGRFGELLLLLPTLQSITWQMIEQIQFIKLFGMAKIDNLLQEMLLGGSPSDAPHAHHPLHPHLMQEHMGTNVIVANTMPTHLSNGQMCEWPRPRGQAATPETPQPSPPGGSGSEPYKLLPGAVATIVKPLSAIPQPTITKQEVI
Kind of assay: protein-binding microarray. The note with it: COS-7 nuclear extract on double-stranded Agilent 4x180k PBM; binding buffer, salt, pH and temperature not given; high values mean tight binding; double strand, one strand shown; sequences stand for … in …GCCTAGGGAGATTAGAGTATCGGTCGA
In the case of GTCTAGGTGCCAGAATTGCTGCTCCCCCTC, the binding signal (log2 normalized intensity) worked out at 3.94.

With GAAAGGAGGTCATGTACATGAAAGCAAGTT, the binding signal (log2 normalized intensity) is 1.24.

On to TAAGCAGATCTTTAGAGACAGAAAATGCTT, for which the binding signal (log2 normalized intensity) is -1.18.

Consider TAAAGTTTATAGGCTAGAATGGAAACCAAT, for which the binding signal (log2 normalized intensity) was -1.17.

Consider GTTTCTGTTTTGATCTTAAGATGATATAGC, for which the binding signal (log2 normalized intensity) stood at 1.74.

On to TTCCAGCTCAATCAAGGACTGGGCTGGAAC, for which the binding signal (log2 normalized intensity) was -1.19.

On to TAGGTAAGAGACAAAGGTTGCATTCTTTTG, for which the binding signal (log2 normalized intensity) came out at 2.02.

As for CACTGTTTGCCATAGATCCCACCATTCCCA, the binding signal (log2 normalized intensity) amounted to 1.63.

TTCAGCTTCTCTTGTTTGTGTAACTGTGGG: the binding signal (log2 normalized intensity) turned out to be 1.62.

Take TGGTGTTTGATCTGATGTACCCAGCACTGT: the binding signal (log2 normalized intensity) was 1.59.

Turning to TTGATATGTTAGTCTTGAGTCCCAAAGTCC, the binding signal (log2 normalized intensity) turned out to be 4.55.

With TGTTTGAGTTCCAAAGTCCATGTTCATAAC, the binding signal (log2 normalized intensity) came out at 5.66.

With GGGTGGGGTGCTGCCTTTCCTGTGACTTTT, the binding signal (log2 normalized intensity) is 2.09.

For the sequence ACCTGATGACAAAGGTGAGAGAGCATCCAG, the binding signal (log2 normalized intensity) was -1.35.

GAAAAGAATATCTCAGCAGCCTGGCTGCTC: the binding signal (log2 normalized intensity) was -1.32.

Regarding CCTGGCCATTTCTCAGGTTGTGTTTGCAGT, the binding signal (log2 normalized intensity) stood at 2.02.

For TTGCATCAGCAGAGGACAGAAGAAGGAAAA, the binding signal (log2 normalized intensity) was -1.44.

GTTCTGTTCCAGTTATGTTCTCTGTACGGA: the binding signal (log2 normalized intensity) stood at 2.02.

With ATCAGAGCTGGATGTGAGTTATGACTACTT, the binding signal (log2 normalized intensity) was found to be 0.62.

For the sequence GCCCTTTTTTTCTCTCCCCTTTTAATACAA, the binding signal (log2 normalized intensity) amounted to 1.73.

For the sequence CCCTCTTTAGGGTAGCCTGGGTTAAAGTCC, the binding signal (log2 normalized intensity) was found to be 6.18.

Turning to CAGCACATGAAGGTCTCCTTGACTTCAAAG, the binding signal (log2 normalized intensity) is -0.936.

Regarding CCTGGTGGCCATCAAGCAGATCATCCAGAG, the binding signal (log2 normalized intensity) was -1.23.

Regarding TTGGTGGGCTTTTGTCACATTCCAGACTTT, the binding signal (log2 normalized intensity) is 3.32.

Regarding CCCCTGCCCCCAGGTAGAGAGCAATCATGC, the binding signal (log2 normalized intensity) was 2.8.

AGATTAGATATATCTGTACTCAAACACTGC: the binding signal (log2 normalized intensity) is 0.957.

In the case of TTTGAAGCATGGAGAAAATTCTGGACCTTC, the binding signal (log2 normalized intensity) amounted to 2.85.

For TTGGTATTACATTACAACCAAAGGAATTTA, the binding signal (log2 normalized intensity) is -0.386.

Regarding TGCTCCCTCCTTCAGTGCTCTGTTGAGTCA, the binding signal (log2 normalized intensity) was 0.343.

As for TCTGTCCCATGGTGTACAAGGAGTCTCCAC, the binding signal (log2 normalized intensity) was 0.988.

Take GGTTCAGAGACCTGGCGGATAGATAGAATC: the binding signal (log2 normalized intensity) is -0.983.

For ACGCCGTCTCAAAAAAAAAAAAAAGGCAGT, the binding signal (log2 normalized intensity) was -1.29.

TCAGGGTAAATCCCGTCCCTGCCAAAGGTC: the binding signal (log2 normalized intensity) came out at 5.45.

As for GGTGATTTCAGACTATTTTATTTTCCCCCT, the binding signal (log2 normalized intensity) was determined as 4.03.

For the sequence CTGGCTGAAGACCTGTACAGGGACTGTGTC, the binding signal (log2 normalized intensity) amounted to 0.454.

In the case of CGTAATGTGTCCCCACATCTGTGAAAACGA, the binding signal (log2 normalized intensity) was found to be 1.51.

In the case of GGGTGTCTGCTGTTCTTGCCTGATAGCATC, the binding signal (log2 normalized intensity) is -0.0171.

With TGCCAAGGAGCCTCTGCAACCTTTGCTCTC, the binding signal (log2 normalized intensity) stood at 6.62.

Turning to AATAAGGATTATCACTGAATCGAGGCTATT, the binding signal (log2 normalized intensity) was -1.32.

For CACAGCACAAGATAAGATAGGAATTTGAGT, the binding signal (log2 normalized intensity) was -1.33.

In the case of TATTCCTTGTCCTTGACCCTTCCTCCCATT, the binding signal (log2 normalized intensity) came out at 4.01.

In the case of CCACAGAGTTGCTGTGACAGACAGGTGAGA, the binding signal (log2 normalized intensity) is -1.28.

As to TAATTGCCCTTTGCCCTTTGCCCAACCCTC, the binding signal (log2 normalized intensity) came out at 7.74.

Consider TTCCCCTTTGACTTAGGATCAGTAGCATTA, for which the binding signal (log2 normalized intensity) is 1.17.

As to AGAACTGGGCGAGCCCTCTGATCTGACCCC, the binding signal (log2 normalized intensity) worked out at 6.3.

On to GCTTGAAAAGAAGAAAAAACAGGTGTTCTT, for which the binding signal (log2 normalized intensity) is -0.629.

For the sequence TTGTCCCTTTCAAGGGCTTACAACTCTAAG, the binding signal (log2 normalized intensity) was 0.699.

In the case of TGATAACATGAGGTAGAGGGACACTGATAA, the binding signal (log2 normalized intensity) was -1.29.

For the sequence CTCCTGACCTTTGGACTTGATAGAGTTTAA, the binding signal (log2 normalized intensity) amounted to 8.25.

As to TGCGTTTCAAAGCCAGGACTTTCAGGAATG, the binding signal (log2 normalized intensity) is -1.22.

Take GTGCTTTCTGTCCTCTCAAAGTCCACCCGG: the binding signal (log2 normalized intensity) is 4.43.

On to TGCTTCAGTCTCCCAAGTAGCTCATTTATT, for which the binding signal (log2 normalized intensity) came to 0.781.

As for AACACCTGGGTCTGACCTCTTTCAAGCCTG, the binding signal (log2 normalized intensity) was 1.64.

As for AAAGCCATCAGCACTGGTTCAAAGTGTAGC, the binding signal (log2 normalized intensity) amounted to 1.25.

For AAGTCCCCTTTCCTCATATTTTGCATACCA, the binding signal (log2 normalized intensity) stood at 1.32.

Take TCCACAGAGTTCATAATTTTGGACTTTGTG: the binding signal (log2 normalized intensity) turned out to be 7.1.

Turning to GCCTGGCTGGCCTGGCAAATCTCTAAATTC, the binding signal (log2 normalized intensity) is -1.43.

CAAACATTTGGAAAACATCATTCCGTGACT: the binding signal (log2 normalized intensity) is -1.29.

With ACTATTTTCAAAGGTCAACATACAGAGGCT, the binding signal (log2 normalized intensity) stood at 2.59.

For the sequence AAGCGGACAAACCAGTCCCATCTGTGCTCA, the binding signal (log2 normalized intensity) was -1.44.

Take CTCCAAACAAATTGAGAAAGATTAAGAGGC: the binding signal (log2 normalized intensity) was -1.38.

CCGAGGCTGACAGCAGAGAGTTTTCCTTGG: the binding signal (log2 normalized intensity) is -1.25.

AATGAATGTCACTTTCTGACTGGCCTGGGA: the binding signal (log2 normalized intensity) is 1.21.

Regarding GGCCCCAGTGCACGTGCATGAGGCCCCTTG, the binding signal (log2 normalized intensity) turned out to be 2.48.

As to GTTTCCCTCTCTCTCTCTCTCTCACACACA, the binding signal (log2 normalized intensity) turned out to be 1.03.

With TCTCTCCCACTTATCTCAATCCTGCTCAAT, the binding signal (log2 normalized intensity) is -1.18.

Take GGGTAGATAAGGATGGATCAAAGGAAACTG: the binding signal (log2 normalized intensity) is -1.1.

For the sequence TCTATCAGTACAAATAAACCTTTGACCAAT, the binding signal (log2 normalized intensity) turned out to be 4.88.

On to TAATGGAATTGACATTCAATTGCAAGCTTA, for which the binding signal (log2 normalized intensity) is -1.41.

For the sequence GGAGGGAACAGCAAGACTTTGGCCCTGCAG, the binding signal (log2 normalized intensity) was found to be 0.278.

As to TAGCTACTGCAATAAAGTGGGTTGAAGTTC, the binding signal (log2 normalized intensity) was determined as 1.71.

For the sequence AGTCCAGAAATAGCATCACGAAAGGCAACA, the binding signal (log2 normalized intensity) was -0.747.
